Publication PMC5787466, “Accelerated bottom-up drug design platform enables the discovery of novel stearoyl-CoA desaturase 1 inhibitors for cancer therapy” (Oncotarget, 2017)

System: SCD1
Test: not given
Conditions: known value, no reference given; read-out: Known IC50; cited from earlier work

| Structure (SMILES) | IC50 [nM] |
| --- | --- |
| NC(=O)c1cnc(N2CCN(C(=O)c3ccccc3C(F)(F)F)CC2)s1 [MerckFrost MF-152, reference compound] | 100 |

System: 4 ccRCC cell lines
Test: High-throughput proliferative screen, single point
Conditions: 10μM; proliferative screen in ccRCC cell lines

| Structure (SMILES) | Single Pt Act (10μM) |
| --- | --- |
| CNC(=O)c1ccc(O[C@H]2CCN(C(=O)c3ccccc3C(F)(F)F)C2)cc1 [SetB.68] | No |
| O=C(NC1CCN(C(=O)c2ccccc2C(F)(F)F)CC1)c1ccc(OCc2ccccc2)nc1 [TC03.14] | No |
| O=C(c1ccc(OCc2ccccc2)nc1)N1CCC2(CCN(C(=O)c3ccccc3C(F)(F)F)CC2)C1 [TC03.8] | No |
| CNC(=O)c1cccc(S(=O)(=O)N2CC[C@H](COc3ccccc3Cl)C2)c1 [SetA.70] | No |
| O=C(c1ccc(OCc2ccccc2)nc1)N1C[C@@H]2CN(C(=O)c3ccccc3C(F)(F)F)C[C@H]2C1 [TC03.6] | No |
| O=C(c1ccccc1C(F)(F)F)N1CCC(S(=O)(=O)Nc2ccc(OCc3ccccc3)nc2)CC1 [TC03.18] | No |
| CNC(=O)Cc1cccc(OC2CCN(C(=O)c3ccccc3C(F)(F)F)CC2)c1 [SetB.74] | No |
